# Assay results published in article PMC4336329 (PLoS ONE, 2015).
# Out of some 310,000 compounds screened, about 2,200 (0.71%) showed an effect of 50% or more. Effects have a minus sign here. This is one part of the list.
# Molecular target: human ether-à-go-go-related gene (hERG) potassium channel (human, UniProt Q12809)
# Assay: primary screen, population patch clamp on CHO cells stably expressing hERG
# human ether-à-go-go-related gene (hERG) potassium channel, sequence (Q12809 whole entry, looked up): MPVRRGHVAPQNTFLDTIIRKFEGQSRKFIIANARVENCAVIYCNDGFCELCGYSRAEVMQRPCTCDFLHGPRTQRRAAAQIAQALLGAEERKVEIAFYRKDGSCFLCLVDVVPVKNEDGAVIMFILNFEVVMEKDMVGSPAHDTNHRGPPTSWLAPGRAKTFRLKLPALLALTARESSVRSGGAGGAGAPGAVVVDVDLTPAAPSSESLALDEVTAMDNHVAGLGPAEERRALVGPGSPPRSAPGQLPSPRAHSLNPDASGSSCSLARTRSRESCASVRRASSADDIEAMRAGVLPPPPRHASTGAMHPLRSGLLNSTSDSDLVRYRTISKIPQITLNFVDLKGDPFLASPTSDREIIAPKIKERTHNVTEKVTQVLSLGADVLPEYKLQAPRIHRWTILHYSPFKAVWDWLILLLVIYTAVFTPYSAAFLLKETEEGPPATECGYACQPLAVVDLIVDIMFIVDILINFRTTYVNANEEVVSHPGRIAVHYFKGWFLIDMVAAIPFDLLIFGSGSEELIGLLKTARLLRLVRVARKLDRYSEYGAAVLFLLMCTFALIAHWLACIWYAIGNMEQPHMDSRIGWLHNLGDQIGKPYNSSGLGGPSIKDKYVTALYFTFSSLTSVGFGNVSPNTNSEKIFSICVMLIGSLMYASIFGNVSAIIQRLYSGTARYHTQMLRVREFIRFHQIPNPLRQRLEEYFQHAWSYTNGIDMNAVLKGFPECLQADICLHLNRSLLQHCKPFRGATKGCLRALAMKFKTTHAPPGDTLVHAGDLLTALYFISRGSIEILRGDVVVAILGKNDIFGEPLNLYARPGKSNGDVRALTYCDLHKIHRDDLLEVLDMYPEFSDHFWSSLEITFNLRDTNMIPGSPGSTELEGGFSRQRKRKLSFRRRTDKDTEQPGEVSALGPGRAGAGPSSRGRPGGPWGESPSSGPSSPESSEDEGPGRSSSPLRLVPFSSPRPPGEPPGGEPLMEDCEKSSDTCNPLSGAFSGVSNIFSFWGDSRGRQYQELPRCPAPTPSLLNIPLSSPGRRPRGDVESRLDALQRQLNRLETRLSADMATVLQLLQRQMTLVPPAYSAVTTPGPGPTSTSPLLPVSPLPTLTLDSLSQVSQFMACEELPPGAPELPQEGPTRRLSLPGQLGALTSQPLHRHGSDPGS
row,Structure (SMILES),"hERG current change (%, negative = inhibition) at 1uM"
1,Cc1ccc(CN=C2Nc3ccccc3CS2)cc1,14%
2,Cc1ccc(C)c(S(=O)(=O)NCc2ccncc2)c1,5.02%
3,CC(C)COc1ccc(/C(O)=C2/C(=O)C(=O)N(CCN(C)C)C2c2ccncc2)cc1 (stereo not shown),12.9%
4,CC1CCCN(C(=S)SCC(=O)c2cc(Br)cc(Br)c2O)C1 (stereo not shown),10.2%
5,CC(O)/C=C/c1ccc2ccccc2n1 (stereo not shown),3.65%
6,CC(=O)/C(=N/Nc1ccccc1Cl)Sc1nnc(C(O)c2ccccc2)n1-c1ccccc1 (stereo not shown),12.8%
7,O=C(COc1ccccc1)NCC(=O)Nc1cccc2ccccc12,5.54%
8,COc1ccccc1N=C(C)C1=C(O)COC1=O,18.2%
9,CN(CC(=O)NCCc1ccc(S(N)(=O)=O)cc1)CC(=O)Nc1ccccc1Cl,-0.838%
10,COc1ccc(CNC(=S)Nc2ccc(F)c(Cl)c2)cc1OC,7.16%
11,CN(C)C(=S)N=Nc1[nH]c2ccccc2c1O,19.5%
12,Cc1cccc(C)c1NC(=S)NCc1ccccc1,8.29%
13,Cc1ccc(CNS(=O)(=O)c2ccc([N+](=O)[O-])cc2)cc1,17.1%
14,CCOc1cc(/C=C/C(=O)O)ccc1OCc1ccccc1,7.7%
15,COCCN(C(=O)c1ccccc1F)c1nnc(-c2ccc(OC)cc2)s1,11.6%
16,Cc1ccc(CN2CCNC(=O)C2CC(=O)NC2CCCCCC2)o1 (stereo not shown),7.02%
17,COc1ccc(CNC(=O)Nc2cccc3ccccc23)cc1,10.7%
18,CCn1cc(/C=C/C(=O)NCc2c(C)nn(C)c2C)cn1,-1.21%
19,COCCNC(=O)C(=O)Nc1cc2c3c(c1)CC(=O)N3CCC2,16.5%
20,CC(C)Cc1nc(N2CCOCC2)c(C#N)c2c1COC(C)(C)C2,-0.329%
21,Clc1ccc(-c2nnc(-c3ccccc3)nc2-c2c[nH]c3ccccc23)cc1,8.98%
22,O=C(COc1ccccc1Cl)N1CCCCCCC1,7.29%

row,Structure (SMILES),"hERG current change (%, negative = inhibition) at 1uM"
1,O=C(CSc1nnc(-c2cc3ccccc3cc2O)n1Cc1ccco1)c1ccc(F)cc1,-3.39%
2,COc1ccc(-n2nc(C(=O)NCc3cc(OC)ccc3OC)c3c4ccccc4n(C)c3c2=O)cc1,16.4%
3,COc1ccccc1NC(=O)N1CCCC1,17.6%
4,COc1cc(C(=O)Nc2nccs2)ccc1OCc1c(C)noc1C,12.2%
5,COC(=O)c1ccc(CNC(=O)CCNC(=O)c2ccco2)cc1,1.62%
6,COC(=O)c1ccc(OCC2c3cc(OC)c(OC)cc3CCN2C(=O)C2CC2)cc1 (stereo not shown),-6.16%
7,COC(=O)C1N[C@@H]([C@@H](NC(=O)COc2ccccc2)C(=O)NCc2ccsc2)SC1(C)C (stereo partly shown),7.39%
8,Cc1cc(C(=O)Cn2nc(C(=O)O)c3ccccc3c2=O)c(C)n1CCc1ccc(Cl)cc1,1.56%
9,CCCNC(=O)CN1C(=O)COc2ccc(S(=O)(=O)N3CC(C)CC(C)C3)cc21 (stereo not shown),-1.64%
10,Cc1ccc(N2C(=O)CN=C2Nc2nc(C)cc(C)n2)cc1,12.2%
11,Cc1ccc2cccc(OCC(=O)Nc3ccc4c(c3)OCO4)c2n1,6.79%
12,COc1cccc(NC(=O)c2ccc(N3C(=O)C4CC=CCC4C3=O)cc2)c1 (stereo not shown),3.45%
13,O=C(CSc1nc2ccccc2[nH]1)NCc1ccc(F)cc1,6.84%
14,CN(CC(=O)Nc1ccc(Cl)c(C(F)(F)F)c1)C(=O)C1CC(=O)N(C2CCCC2)C1 (stereo not shown),6.59%
15,CCCOc1ccc(C(CC(=O)O)NC(=O)Cc2ccccc2)cc1 (stereo not shown),13.7%
16,C=CCNC(=S)N1CCN(Cc2ccccc2)CC1.O=C(O)C(=O)O,6.78%
17,Cc1ccc(OCCSc2nc(NC(C)C)nc(NC(C)C)n2)cc1,3.16%
18,Nc1c2c(nc3sc4c(c13)CCCC4)CCCCC2,-0.153%
19,COc1ccc(NC(=S)N(CCCN2CCC(C)CC2)Cc2cccs2)cc1,-47.5%
20,CCOc1ccc2oc(C(=O)OCC(=O)N3CCCC(C)C3)c(C)c2c1 (stereo not shown),9.09%
21,O=C(COC(=O)Cn1cnc2ccccc2c1=O)NCc1ccccc1Cl,9.28%
22,CCC(C)NC(=O)CSc1ncnc2sccc12 (stereo not shown),19.2%

row,Structure (SMILES),"hERG current change (%, negative = inhibition) at 1uM"
1,CSc1ccc(N2C(=O)NC3(CCCCC3)C2=O)cc1,8.73%
2,COc1ccccc1NC(=O)CN(C)S(=O)(=O)c1ccc2c(c1)CCC(=O)N2,-20.9%
3,Cc1cc2c(c(=O)o1)C(C1C=CCCC1)C(C#N)=C(N)O2 (stereo not shown),4.98%
4,CSc1nc(Cl)c(Cc2ccc(OCC(C)C)cc2)c(N2CCOCC2)n1,13.9%
5,O=S1(=O)CC/C(=N\Nc2ccc(F)cc2)c2ccsc21,4.93%
6,O=C(NCC1CCCO1)C(C(=O)c1ccccc1)n1cc(Cl)ccc1=O (stereo not shown),-4.13%
7,COC(=O)C(C)Sc1nnc2n(-c3cccc(C)c3)c(=O)c3c4c(sc3n12)CCCC4 (stereo not shown),10.6%
8,CC(=O)c1ccc(OCc2ncc(C(F)(F)F)cc2Cl)cc1,8.42%
9,CC(C)c1ccc(CN2CCC(C(=O)NCc3cccnc3)CC2)cc1.O=C(O)C(=O)O,-28.9%
10,O=C(CCCN1C(=O)/C(=C/c2ccccc2)SC1=S)Nc1ccc(C(=O)O)c(O)c1,14%
11,COc1ccc(S(=O)(=O)N2CCCCC2)cc1NC(=O)c1ccco1,8.76%
12,C/C(=N\NC(=O)COc1ccc(C)cc1[N+](=O)[O-])c1ccc2c(c1)OCCO2,8.71%
13,CCOC(=O)c1nc2cc3n(c(CC(C)C)c-2c1C)CC(C)=C3C.Cl,-54.2%
14,COc1ccc(N2C(=O)/C(=C/c3cccs3)C(=O)NC2=S)cc1,12.7%
15,S=C(NCc1cccnc1)Nc1ccc(Oc2ccccc2)cc1,8.29%
16,Brc1cccc(C2Nc3cccc4cccc(c34)N2)c1,14.5%
17,CCOCCCNC(=O)Cc1ccc(Br)cc1,11.1%
18,COC(=O)c1c(C)oc2ccc(N(C(C)=O)S(=O)(=O)c3ccccc3)cc12,2.27%
19,S=C(NCCCN1CCOCC1)Nc1ccc(Cl)cc1Cl,-5.97%
20,O=C(O)c1cccc(NS(=O)(=O)/C=C/c2ccccc2)c1,5.07%
21,Cc1ccc(-n2nnnc2SCC(=O)Nc2sc(C)c(C)c2C#N)cc1C,3.85%
22,CN(C)/C=C(/C(=O)c1ccccc1)S(=O)(=O)c1ccc(Cl)cc1,10%

row,Structure (SMILES),"hERG current change (%, negative = inhibition) at 1uM"
1,COC(=O)C1CC(Cl)CN1c1ncc(C(F)(F)F)cc1Cl (stereo not shown),15.5%
2,COc1ccc2[nH]c(=O)c(CN(CCc3cccc(C)c3)C(C)=O)cc2c1,0.592%
3,COc1ccc(NC(=O)CCS(=O)(=O)c2ccc3c(c2)oc(=O)n3C)cc1OC,14.2%
4,O=C(Nc1ccccn1)c1cc2ccccc2cc1O,17%
5,COc1ccccc1/C=C1\SC(=S)N(CCC(=O)Nc2cc(C)on2)C1=O,13.3%
6,Cc1nc(-c2ccccc2)sc1C(=O)CSc1ccc(Br)cc1,10.2%
7,CC(=O)Nc1ccc(NC(=O)CC2SC(=O)N(CC(=O)c3ccccc3)C2=O)cc1 (stereo not shown),8.07%
8,COCCn1c(N)c(N(Cc2ccccc2)C(=O)c2ccc(-c3ccc(Cl)cc3)o2)c(=O)[nH]c1=O,0.709%
9,O=C(O)c1cnn(-c2ccccc2)c1-c1ccncc1,10.8%
10,COc1c(Cl)cc(Cl)cc1C(=O)Nc1ccc(NC(=O)c2cccs2)cc1,15.5%
11,O=C(CSCc1ccccc1)NNc1c(F)c(F)cc(F)c1F,11.9%
12,COc1ccc(-c2nnc(SCc3cc(C)ccc3C)n2N)cc1,0.154%
13,O=C(Nc1ccc(C(=O)N2CCC([NH+]3CCOCC3)CC2)cc1)c1ccc(Br)o1.O=C(O)C(F)(F)F,10.4%
14,CC1CCCN(C(=O)COC(=O)CSc2ccc(C(N)=O)cc2[N+](=O)[O-])C1 (stereo not shown),7.65%
15,N#CCCN(C(=O)CN1C(=O)NC2(CCCC2)C1=O)c1ccccc1F,8.67%
16,COc1ccc(OC)c(C2C(C(=O)c3sc(C)nc3C)=C(O)C(=O)N2CCN2CCOCC2)c1 (stereo not shown),20.7%
17,O=C(NCc1ccncc1)c1ccc(Br)cc1,1.23%
18,Cc1nc2c(-c3ccc(F)cc3)c(C)nn2c(C)c1CCC(=O)N1CCC2(CC1)OCCO2,-33.2%
19,CC(C)(C)OC(=O)NCCCCCNC(=O)c1[nH]cnc1C(=O)NC1CCN(C(=O)OC(C)(C)C)CC1,-13.1%
20,N#CCC(=O)Nc1ccc(C(=O)OCC(=O)N=c2sccn2Cc2ccccc2Cl)cc1,8.25%
21,O=C(CSc1nnc(-c2ccccc2)o1)N1CCN(c2ccccc2)CC1,21.4%
22,COc1ccc(CNC(=O)CCCn2nc(C)c3c(C)n(-c4ccc(C)cc4)nc3c2=O)cc1OC,10.9%
